Experimental data published in paper PMC6602471.
This is one part of the list. At the low end of the ranking the order means little.

These sequences were tested against T1, ELK1 (UniProt P19419) (assay: custom PBM). Details: custom protein-binding microarray; buffer, salt, pH and temperature not stated; high values mean tight binding; double strand, one strand shown.
T1 sequence: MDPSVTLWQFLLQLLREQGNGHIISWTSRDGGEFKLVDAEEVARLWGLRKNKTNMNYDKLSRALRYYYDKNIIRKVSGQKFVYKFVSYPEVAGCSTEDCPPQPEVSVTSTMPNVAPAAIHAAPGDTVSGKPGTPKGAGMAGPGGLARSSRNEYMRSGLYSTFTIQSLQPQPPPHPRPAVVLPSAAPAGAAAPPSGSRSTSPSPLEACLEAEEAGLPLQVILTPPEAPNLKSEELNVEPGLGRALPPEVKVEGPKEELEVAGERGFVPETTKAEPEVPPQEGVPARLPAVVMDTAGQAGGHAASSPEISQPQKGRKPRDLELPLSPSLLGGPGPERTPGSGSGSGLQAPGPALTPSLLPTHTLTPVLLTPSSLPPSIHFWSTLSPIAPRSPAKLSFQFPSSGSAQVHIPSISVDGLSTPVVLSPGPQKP
For “GGAAAAAGGCCCAGGGTAACACCGGAAGTGGGCTAAGTCTTGATTCGCTTGACGCTGCTG”, the binding signal (log fluorescence intensity) was 10.8.
“CGGAAGTGTCGTAAACGTCGGGTATCCGGTTCTTCTGTCTTGATTCGCTTGACGCTGCTG” was tested, and the binding signal (log fluorescence intensity) was 11.2.
Sequence “CACCATAGGACTTCTTCCCTGAAGCAATTGATAACCGTCTTGATTCGCTTGACGCTGCTG” has a binding signal (log fluorescence intensity) of 8.86.
Sequence “CAGCATTGGACTTCTTCCCTGAAGCAATTGATAACCGTCTTGATTCGCTTGACGCTGCTG” has a binding signal (log fluorescence intensity) of 8.9.
In the case of “CTGGGACTTGACCCAACTCTGCCCCGTGGGTCGTTTGTCTTGATTCGCTTGACGCTGCTG”, the binding signal (log fluorescence intensity) is reported as 8.87.
For “CTGGGACTTGACCCAAGTCTGCCACGTGGGTCGTTTGTCTTGATTCGCTTGACGCTGCTG”, the binding signal (log fluorescence intensity) was 8.8.
For “GAAAAAAGGCCCAGGGTAACACCGGAAGTGGGCTTAGTCTTGATTCGCTTGACGCTGCTG”, the binding signal (log fluorescence intensity) was 11.
Sequence “CAGCATAGGACTTCTTCACTGAAGCAATTGATAACCGTCTTGATTCGCTTGACGCTGCTG” has a binding signal (log fluorescence intensity) of 8.76.
For “GGAAAAAGGCCCAGGGTAACACCGGAAGTGGTCTTAGTCTTGATTCGCTTGACGCTGCTG”, the binding signal (log fluorescence intensity) was 10.9.
Sequence “TAAAGGGAAGACGGTTGTGGTAGTTCCGGGGATTAAGTCTTGATTCGCTTGACGCTGCTG” has a binding signal (log fluorescence intensity) of 10.9.
“GCCGCTGCGGTGCATACCCCACCGGATGTGACCCCGGTCTTGATTCGCTTGACGCTGCTG” gave a binding signal (log fluorescence intensity) of 10.1.
For “TAAAGGGAAGACGGTTGTGGTAGTTCCGAGTATTAAGTCTTGATTCGCTTGACGCTGCTG”, the binding signal (log fluorescence intensity) was 9.53.
“CTGGGACTTGACCCAACTCTGCCACGTGAGTCGTTTGTCTTGATTCGCTTGACGCTGCTG” was tested, and the binding signal (log fluorescence intensity) was 9.
Work on “CGGAAGTGTCGCAAACGTCGGATATCCGGTTCTTCTGTCTTGATTCGCTTGACGCTGCTG” yielded a binding signal (log fluorescence intensity) of 12.5.
“CAGCATAGGTCTTCTTCCCTGAAGCAATTGATAACCGTCTTGATTCGCTTGACGCTGCTG” gave a binding signal (log fluorescence intensity) of 8.99.
Work on “GGAAAAAGGCCCAGGGTAGCACCGGAAGTGGGCTTAGTCTTGATTCGCTTGACGCTGCTG” yielded a binding signal (log fluorescence intensity) of 10.8.
“CACAATTTTTACAGTAATGTAGTACGCGTAACTCCTGTCTTGATTCGCTTGACGCTGCTG” gave a binding signal (log fluorescence intensity) of 9.01.
“CGGAAGCGTCGTAAACGTCGGATATCCGGTTCTTCTGTCTTGATTCGCTTGACGCTGCTG” was tested, and the binding signal (log fluorescence intensity) was 12.5.
In the case of “CACAATTTTTACAATAATGTAGCACGCGTAACTCCTGTCTTGATTCGCTTGACGCTGCTG”, the binding signal (log fluorescence intensity) is reported as 8.88.
Sequence “TCCGGCTACCAGCTCCCCCCACTTCAGGCCTTGTAGGTCTTGATTCGCTTGACGCTGCTG” has a binding signal (log fluorescence intensity) of 8.72.
“GATTAATTTCTGCCCTTATTCGCACGTGCCATACCAGTCTTGATTCGCTTGACGCTGCTG” showed a binding signal (log fluorescence intensity) of 8.97.
“GCTGCGGCGGTGCATACCCCACCGGATGTGACCCCGGTCTTGATTCGCTTGACGCTGCTG” gave a binding signal (log fluorescence intensity) of 10.4.
“CACAATTTTTACAGTAATGTACCACGCGTAACTCCTGTCTTGATTCGCTTGACGCTGCTG” showed a binding signal (log fluorescence intensity) of 8.89.
With “GCTGCTGCGGTGCATGCCCCACCGGATGTGACCCCGGTCTTGATTCGCTTGACGCTGCTG” the binding signal (log fluorescence intensity) was 10.2.
“GCGGCTGCGGTGCATACCCCACCGGATGTGACCCCGGTCTTGATTCGCTTGACGCTGCTG” was tested, and the binding signal (log fluorescence intensity) was 10.
“TAAAGGTAAGACGGTTGTGGTAGTTCCGGGTATTAAGTCTTGATTCGCTTGACGCTGCTG” showed a binding signal (log fluorescence intensity) of 11.2.
With “GATTAATTTCTGCCCTTCTTCGCACGTGCCATAACAGTCTTGATTCGCTTGACGCTGCTG” the binding signal (log fluorescence intensity) was 8.75.
“CTGGGACTTGACCCAACTCTGCCACGTGGGTCGGTTGTCTTGATTCGCTTGACGCTGCTG” was tested, and the binding signal (log fluorescence intensity) was 8.84.
Sequence “GGAAAAAGGACCAGGGTAACACCGGAAGTGGGCTTAGTCTTGATTCGCTTGACGCTGCTG” has a binding signal (log fluorescence intensity) of 11.
For “CTGGGACTTGACCCATCTCTGCCACGTGGGTCGTTTGTCTTGATTCGCTTGACGCTGCTG”, the binding signal (log fluorescence intensity) was 8.88.
“GTGTATAGGATGCCATCCAACACACGTGTTAAAATGGTCTTGATTCGCTTGACGCTGCTG” was tested, and the binding signal (log fluorescence intensity) was 8.94.
With “CACAATTTTTACAGTAATTTAGCACGCGTAACTCCTGTCTTGATTCGCTTGACGCTGCTG” the binding signal (log fluorescence intensity) was 8.93.
“GGAAAAAGGCCCAGGGTAACACGGGAAGTGGGCTTAGTCTTGATTCGCTTGACGCTGCTG” showed a binding signal (log fluorescence intensity) of 9.06.
In the case of “GATTAATTTCTACCCTTATTCGCACGTGCCATAACAGTCTTGATTCGCTTGACGCTGCTG”, the binding signal (log fluorescence intensity) is reported as 8.75.
In the case of “GGAAAAAGGCCCAGGGTAACACCGGAAGTGGGCGTAGTCTTGATTCGCTTGACGCTGCTG”, the binding signal (log fluorescence intensity) is reported as 10.9.
With “GTGTATAGGATCCCATACAACACACGTGTTAAAATGGTCTTGATTCGCTTGACGCTGCTG” the binding signal (log fluorescence intensity) was 8.93.
“GAAAGGGAAGACGGTTGTGGTAGTTCCGGGTATTAAGTCTTGATTCGCTTGACGCTGCTG” was tested, and the binding signal (log fluorescence intensity) was 11.3.
Work on “TCTGCTGCGGTGCATACCCCACCGGATGTGACCCCGGTCTTGATTCGCTTGACGCTGCTG” yielded a binding signal (log fluorescence intensity) of 10.1.
In the case of “CAGCATAGGACTTCTTCCCTGAAGCAATTGAGAACCGTCTTGATTCGCTTGACGCTGCTG”, the binding signal (log fluorescence intensity) is reported as 8.77.
With “CAGCATAGGACTTCTTCCCAGAAGCAATTGATAACCGTCTTGATTCGCTTGACGCTGCTG” the binding signal (log fluorescence intensity) was 8.89.
For “CTGGGACTTGAGCCAACTCTGCCACGTGGGTCGTTTGTCTTGATTCGCTTGACGCTGCTG”, the binding signal (log fluorescence intensity) was 8.81.
